The values that follow come from PMC12136788.

B1: chr2:46903092:46903222:-|3pUTR|ENSG00000180398|msi1|FALSE|unique (ssRNA)
RNA: GGGAGUUCUACAGUCCGACGAUCAAGCAGAAACCCCUGAUAAACUGAUCAGAUCUCAUGAGACUUAUUCACUGUCACGAGAAUAGCACGGGAAAGACUGGCCCCCAUGAUUCAAUUACCUCCCCCUGGGUCUGUCCCACAACACAACAGAGGAUUGAGCAUCA
B2: ENSG00000140057:stop:overlap|stop_codon|ENSG00000140057|stop_codon|NA|stop_codon (ssRNA)
RNA: GGGAGUUCUACAGUCCGACGAUCCGCGGCCUGACUUUGCGGUGGAGACGUACUCUGUAAGUCCCGGAGGCUCUGGCCAGGAGUAGACAGAGGGAAGAGUCACCUUCCGCUCCAACGCCUUGACAACUUGUUUUACUGUUUGCCCAACAGAGGAUUGAGCAUCA
B3: chr13:38882223:38882324:+|3pUTR|ENSG00000150893|msi1|FALSE|unique (ssRNA)
RNA: GGGAGUUCUACAGUCCGACGAUCAGAAAAAUAAGGUCAGGAGAAAAAGAAUAAUGCCUACAGAUUAUCCUUCAGAUGCUGGCUAGAAUCCCCUUUGACUUCUAGCCAUAAGCUGGCCACAUUGGACAUCUUGGUCACUGCAGACAACAGAGGAUUGAGCAUCA
B4: chr7:7573188:7573293:+|CDS|ENSG00000164654|unk|total|mutant (ssRNA)
RNA: GGGAGUUCUACAGUCCGACGAUCCCAUAUUUCCACGAUCGUGUUGCUUCCUUCUAUGAAGGUCAGGUUGCAAUAUGGGAUCUCCGAAAAUUUGAGAAGCCAGUUUUGACAUUGACUGAGCAACCAAAACCCUUAACAAAAGUACAACAGAGGAUUGAGCAUCA
B5: ENSG00000198589:be:win_4051|CDS|ENSG00000198589|bound_else_gene|NA|bound_elsewhere_windowed (ssRNA)
RNA: GGGAGUUCUACAGUCCGACGAUCGUCAUCUUUGUACACAACACAAUUCAUCUCAUCUCUCAAGUGAUGGACAAUAUGGUCAUGGCUUGUGGGGGUAUACUGCCAUUGCUUUCAGCUGCUACAUCGGCUACACAUGAACUGGAACAACAGAGGAUUGAGCAUCA
B6: chr7:101138022:101138407:+|3pUTR|ENSG00000106366|msi1|FALSE|unique (ssRNA)
RNA: GGGAGUUCUACAGUCCGACGAUCCUCUUGGUGGGGAGGGGUGUACCUAAAUAUUUAUCAUAUCCUUGCCCUUGAGUGCUUGUUAGAGAGAAAGAGAACUACUAAGGAAAAUAAUAUUAUUUAAACUCGCUCCUAGUGUUUCUUCAACAGAGGAUUGAGCAUCA
B7: chr10:32268825:32268926:-|3pUTR|ENSG00000120616|unk|FALSE|unique (ssRNA)
RNA: GGGAGUUCUACAGUCCGACGAUCUGGGGACUUGACAGCAAUGCUCAUCUCUCAUGCUUCAAUUUUUCUUUUCUUACUGUUAAUAGGAAAAAAAUCAACAUCUGUAAAUUAAGAAUACAGCAAUUAUCUGUACAGUACUGCAUACAACAGAGGAUUGAGCAUCA
B8: ENSG00000109180:stop:overlap|stop_codon|ENSG00000109180|stop_codon|NA|stop_codon (ssRNA)
RNA: GGGAGUUCUACAGUCCGACGAUCCAACAGAGGAAGAAAGGAGAGUCUUCGCAGAAUGCAAUGAUGAAAGCUUCUGGUUCAGAUAGAUGGGGUUUCACCGUGUUAACCAGGAUGGUCUCCAUCUCCUGACCUUGUGAUCCACCUCAACAGAGGAUUGAGCAUCA
B9: chr1:231019617:231019718:-|3pUTR|ENSG00000182118|msi1|FALSE|unique (ssRNA)
RNA: GGGAGUUCUACAGUCCGACGAUCGCAGGGAGUUCUCCGCGGAUGCAUGGUGGCAGUCUGCUUUGAUGGCAGCAGUUUCUGCUUAGGUGACCUAGAGGUCCUCAGCAGUAUCCUCCACACCUAUUUAUUGAGGUGCACCUGCUGCAACAGAGGAUUGAGCAUCA
B10: chr2:1633824:1633925:-|3pUTR|ENSG00000130508|msi1|FALSE|unique (ssRNA)
RNA: GGGAGUUCUACAGUCCGACGAUCAUUUAAUUCUUUUAAAAUGAAAAAUUGGUGCUACUAUUAAAUUGCACAGUUGAAUCAUUUAGGCGCCUAAAUUGAUUUUGCCUCCCAACACCAUUUCUUUUUAAAUAAAGCAGGAUACCUCAACAGAGGAUUGAGCAUCA
B11: chr10:72062367:72062468:-|3pUTR|ENSG00000107742|unk|total|mutant (ssRNA)
RNA: GGGAGUUCUACAGUCCGACGAUCCCUUGAUCCACACUGCUCCUGGCAGAGUGAGUCACCCAAAGGCCCCUUCGGCCUCCUUGCCGCUGUUUUCUUUCCUUUUGUUGUUGGUUUUAAAAUACAUUCACACACAAAUACAAAUUGCAACAGAGGAUUGAGCAUCA
B12: chr3:170465896:170466000:-|3pUTR|ENSG00000013293|unk|FALSE|unique (ssRNA)
RNA: GGGAGUUCUACAGUCCGACGAUCACUUAGGUAGUUGCAUUCCAUGAGAUCACAUUUCACUUCUGAACCUUAUUCCUUGGGGCUAGCUCACUUUCAGAGGUGUAUUUUUUUUUCCUGUUAUUUCCCAGAGUAGUUUCACUGAAGCAACAGAGGAUUGAGCAUCA
B13: ENSG00000070961:be:win_3101|CDS|ENSG00000070961|bound_else_gene|NA|bound_elsewhere_windowed (ssRNA)
RNA: GGGAGUUCUACAGUCCGACGAUCCAGAACUUUCAAUAGAACAGUGGCUAUGGUCAAUAUUCCUAGGAAUGGGAACAUUACUCUGGGGCCAGCUUAUUUCAACAAUUCCAACUAGCCGUUUAAAAUUCCUCAAAGAAGCUGGUCCAACAGAGGAUUGAGCAUCA
B14: ENSG00000124766:be:win_3451|3pUTR|ENSG00000124766|bound_else_gene|NA|bound_elsewhere_windowed (ssRNA)
RNA: GGGAGUUCUACAGUCCGACGAUCAGAGGCUUUAAAACUGGUGCAAUUACAGCAAAAAGGGAUUCUGUAGCUUUAACUUGUAAACCACAUCUUUUUUGCACUUUUUUUAUAAGCAAAAACGUGCCGUUUAAACCACUGGAUCUACAACAGAGGAUUGAGCAUCA

The list shows a part of the results.

This test deals with MSI1 full-length (mouse, UniProt Q61474 1-362). Kind of test: nsRBNS (natural sequence RNA bind-n-seq); RBNS binding buffer (assumed for nsRBNS): 25 mM Tris pH 7.5, 150 mM KCl, 3 mM MgCl2, 0.01% Triton X-100, 500 ug/ml BSA, 20 U/ml SUPERase-In, 4 C; UNK is unkempt and MSI1 is Musashi-1; names of the RNAs are library labels; protein concentration not given here; high values mean tight binding.
Sequence of UniProt Q61474 (Q61474 whole entry): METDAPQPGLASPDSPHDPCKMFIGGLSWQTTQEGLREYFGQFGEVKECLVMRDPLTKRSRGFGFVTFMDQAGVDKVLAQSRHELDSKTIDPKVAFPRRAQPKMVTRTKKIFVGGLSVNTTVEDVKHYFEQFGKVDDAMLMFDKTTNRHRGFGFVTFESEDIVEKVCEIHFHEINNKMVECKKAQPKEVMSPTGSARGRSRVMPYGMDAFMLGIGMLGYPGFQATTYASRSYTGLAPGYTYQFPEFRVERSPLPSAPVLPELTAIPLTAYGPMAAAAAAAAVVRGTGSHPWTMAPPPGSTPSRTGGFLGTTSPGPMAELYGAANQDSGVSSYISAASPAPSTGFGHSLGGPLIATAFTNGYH
As for B1, the binding signal came to 0.605 enrichment R.
In the case of B2 it was 1.06 enrichment R; in that of B3, 0.232 enrichment R; in that of B4, 0.2 enrichment R.
The same measure for B5: 0.513 enrichment R; for B6: 2.12 enrichment R.
The same measure for B7: 0.754 enrichment R; for B8: 1.04 enrichment R; for B9: 0.432 enrichment R.
On to B10, for which the binding signal came to 0.464 enrichment R.
B11 gave a binding signal of 0.376 enrichment R.
The same measure for B12: 10 enrichment R.
The same measure for B13: 0.672 enrichment R; for B14: 1.5 enrichment R.
